This is one part of the list.
System: PfAP2-HC AP2 domain (GST-tagged)
Test: gcPBM binding intensity (ln(normalized median fluorescence intensity)); higher = stronger DNA binding
Summary of the method: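 GST-tagged P. falciparum DNA-binding domains produced in E. coli were incubated for 1 h on an Agilent 4 × 180k array of primer-extended double-stranded 36-bp intergenic genomic probes with negative controls. Binding intensity is the highest Masliner-normalised natural-log median intensity across replicate spots of either probe orientation, with bound protein detected by Alexa488 anti-GST antibody at 488 nm.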

Row | Sequence | gcPBM binding intensity (ln)
1 | AATACAATTGAAAATTGTACTTTGTTTTTTATAAAT [XGTACX_site4080] | 9.43
2 | CACATTTCTGTAGTTGCATGTAGAAAAAAAAAAAAA [TGCATGCA_site810] | 9.38
3 | CATATAATAAATAATACACACATATTGGAAATATAT [CACACA_site3212] | 9.89
4 | TTTATTTATTTATATTTTTTTATATAATTTATATAT [GTGCAC_negctrl_site301] | 9.57
5 | AAAGGTATATATGTGTGTACATATATATATATATAT [XGTACX_site5629] | 9.86
6 | AAAAATAAAAAAAAATTAAAATATATATATTTTGTT [TGCATGCA_negctrl_site102] | 9.34
7 | AGGAAAAAAAGTAGCACACAAATATTTATAATATAT [CACACA_site2437] | 10.2
8 | AACATATTTATATACACACACATATTTATATGAAAT [CACACA_site6268] | 10.1
9 | GAGAGGATACATACATGTACATAAATATTTTATTTT [XGTACX_site5129] | 9.69
10 | CGTAGCCGCACTAACACACACAAATATACGCAATCA [CACACA_site2898] | 10.1
11 | AAAAAAAAAAAAAATAATAAATAAATAAATAAATAA [GTGCAC_negctrl_site505] | 9.38
12 | ATATTTTGGGTGTTGTTTTTTTTTAAAACTCTTTAA [CACACA_negctrl_site1255] | 9.75
13 | ATTAGTTTATATGAATGATTTTTCTTTTTTTTTTTT [CACACA_negctrl_site88] | 9.52
14 | TTACTATTTCACTGTGCATGCAACAAAAATCTATCT [TGCATGCA_site808] | 9.58
15 | TATCATTTTGAAGTATGTACTTATTTTATTAAAATA [XGTACX_site7784] | 9.51
16 | ATTATATTAAAATATTCACACACTAACGTAAATCAT [CACACA_site8887] | 9.73
17 | TAAATACATAAATACACACACATATATATATATATA [CACACA_site5549] | 10.1
18 | TGTATAAGGTTTTTACGTTTTGAAGGATGTATTGTT [CACACA_negctrl_site1245] | 9.68
19 | TAGGTCATATTTTTTGCACACAAAAAAAAATATAAA [CACACA_site3380] | 9.81

Row | Sequence | gcPBM binding intensity (ln)
20 | TTTTTCCAATCAGATGCATGTTACTATATTTGGTTC [TGCATGCA_site52] | 9.73
21 | CACCTCAATATTCACATACACACAATATCATCGAAG [CACACA_site1675] | 10
22 | AAGGAAAAAACAAATACACACAAAAACGCATTATAA [CACACA_site3466] | 10.2
23 | ATGAACTTATTTTAGTGTACTAAAAAATATGACTTC [XGTACX_site470] | 9.47
24 | TATGTTCCGAAGGTTGTACACACATAGAAATATACA [CACACA_site9285] | 9.76
25 | GGGAGGATATTACACAGTACCCAGGAAATCTACGGA [XGTACX_site4874] | 9.54
26 | TTTTTTTTTTTTGTAACATGCAAACAACAATATGGG [TGCATGCA_site695] | 9.41
27 | ATGTAATTGTATACATGTACGCAAACACAAAAGCAT [XGTACX_site6771] | 9.97
28 | TACATAATTTTAATCACACACAAACAAACACATACA [CACACA_site194] | 10.2
29 | GTAAGTATATATAATAGTACATATATATTAATATAT [XGTACX_site4314] | 9.76
30 | TTTTGTTCATACAAATTGGAACAAGACAAAAATATA [XGTACX_negctrl_site327] | 9.56
31 | TAATATTTTATTTTTGTTGTGGATCCAAAAAAAAAA [CACACA_negctrl_site846] | 9.39
32 | CTATATATTTAAAAAAGTACAAATATAAAAATATAT [XGTACX_site676] | 9.61
33 | TGTTTACACTTTTTTTGTACACATAATTTTATTTGA [XGTACX_site3760] | 9.74
34 | AAAAAAAAAAAAAACACACACATATAACATATTTAA [CACACA_site6745] | 10.5
35 | TATTCTAGTCTGCTTACACACATATTTATATTTATA [CACACA_site7432] | 10.2
36 | TTATTTCTTCAGAAAAAATTAAAAAATTAAACAATA [CACACA_negctrl_site169] | 9.35
37 | ATTTTTTTTTTTTTTTTTTTTTTTTTTTTTTTATGC [CACACA_negctrl_site1018] | 9.21
38 | AATATATGGTTTCATGATATAAAATTCAATTTAATG [GTGCAC_negctrl_site610] | 9.51

Row | Sequence | gcPBM binding intensity (ln)
39 | TATATATATATATATGTATGCATGTCCTTTTTTATT [TGCATGCA_site344] | 9.65
40 | ATTTTTTTTAAACGAAGTACAATTTGTGCATTGGAA [XGTACX_site8109] | 9.34
41 | TTTTTTTTTTTTGTAGTGCAAATTAAAAATATATGT | 9.39
42 | TGTTTATCATATTTGTGTCCTCATTTTTTAGTATCA [XGTACX_site947] | 9.77
43 | ACAAAAAAAAAGGAAACACACAAAAAAAAAAAATAA [CACACA_site3523] | 9.77
44 | ACCTATAAAAAATAATGTACAGGAAGAAATATAAGG [XGTACX_site5822] | 9.81
45 | ACTATATTTCTATAATGTACAAAAATAAATCATATG [XGTACX_site3337] | 9.46
46 | TAATTTACACCTACGTGTACACACAAAAATATGTTT [XGTACX_site1868] | 10
47 | TTTATTATCAAGATTGCACACCCTTATGAACTTTTT [CACACA_site3166] | 9.82
48 | AAAAAAAAAAAAAATACACACAAACACAAATTAAAT [CACACA_site5982] | 10.8
49 | GTAATATTATAATATACACACATAGAATATATATAT [CACACA_site413] | 9.82
50 | AAGATCATATATTCGTGGGTATAAAAAGTTATAATA [TGCATGCA_negctrl_site439] | 9.54
51 | AGAAATATGTTGAAGCATTTATAATGTAGATATAAG [GTGCAC_negctrl_site640] | 9.72
52 | TTATTAAAGGAAAAATGTACATATAAATGAATATGT [XGTACX_site23] | 9.52
53 | AAAAAATGTAAATATAAACAACCAAAGGGGGTATAC [GTGCAC_negctrl_site465] | 10
54 | TACGTGAAGTTATATACACACATAAATATGTCTGTA [CACACA_site7463] | 9.75
55 | ATAATATTTTATGGTTGTACTTTTAGTTCTTTTTTT [XGTACX_site5756] | 9.7
56 | ATTAAATATATTTTGCGTACACAAAAAAATACGTTC [XGTACX_site3862] | 9.83
